Test results published in the supplement of paper PMC6451100.
The other results are listed elsewhere or left out. Values come from read counts of a selection and are noisy.

system: Drosophila AGO1 (endogenous, S2-R+ lysate); test: AGO1 loading enrichment factor (IP read count / input read count, not library-size normalised) (ratio); higher = more efficient loading into AGO1; conditions: randomized region: 5' 5N of miR-317 loop
Description: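 HISSA: 5'-phosphorylated, 32P-labelled 20-nt ssRNA oligos (miR-317 loop, first 5 nt randomized, constant 3' part TGAAATGCAAGCAAG as printed in methods; DNA letters for RNA) incubated 1 h at 25°C in S2-R+ cell lysate. Endogenous AGO1 was immunopurified with anti-AGO1 and bound oligos were sequenced after splinted ligation.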
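Further: S2-R+ lysate came from cells stably expressing FLAG-tagged AGO2, enrichment per 5N variant computed with FASTAptamer, reads lacking the constant 3′ segment discarded.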

Sequence | AGO1 loading enrichment factor
TCCGATGAAATGCAAGCAAG | 0.25
TGTCGTGAAATGCAAGCAAG | 0.111
ATTCATGAAATGCAAGCAAG | 0.416
TATTTTGAAATGCAAGCAAG | 0.355
CTCGGTGAAATGCAAGCAAG | 0.0759
CCTCGTGAAATGCAAGCAAG | 0.242
GCTGTTGAAATGCAAGCAAG | 0.06
TAAAATGAAATGCAAGCAAG | 0.387
TGTCCTGAAATGCAAGCAAG | 0.226
GTGTCTGAAATGCAAGCAAG | 0.122
AGCGGTGAAATGCAAGCAAG | 0.105
TCTATTGAAATGCAAGCAAG | 0.434
TCATATGAAATGCAAGCAAG | 0.247
AATTTTGAAATGCAAGCAAG | 0.239
TGCTCTGAAATGCAAGCAAG | 0.036
GCTCGTGAAATGCAAGCAAG | 0.0121
TGTAATGAAATGCAAGCAAG | 0.146
GCTAGTGAAATGCAAGCAAG | 0.0298
CATCATGAAATGCAAGCAAG | 0.317
GAACGTGAAATGCAAGCAAG | 0.134
TGCCATGAAATGCAAGCAAG | 0.237
TTTGTTGAAATGCAAGCAAG | 1.2
TTCACTGAAATGCAAGCAAG | 1
AACAATGAAATGCAAGCAAG | 0.22
TGGGATGAAATGCAAGCAAG | 1.09

Sequence | AGO1 loading enrichment factor
AGTCTTGAAATGCAAGCAAG | 0.00421
ACTAGTGAAATGCAAGCAAG | 0.153
CGCTTTGAAATGCAAGCAAG | 0.0194
GCTGATGAAATGCAAGCAAG | 0.0728
AACTATGAAATGCAAGCAAG | 0.123
CCGACTGAAATGCAAGCAAG | 0.818
TGCTTTGAAATGCAAGCAAG | 0.012
AATGCTGAAATGCAAGCAAG | 0.0411
CGACCTGAAATGCAAGCAAG | 0.568
CTAACTGAAATGCAAGCAAG | 0.079
GCACGTGAAATGCAAGCAAG | 0.117
ATGGCTGAAATGCAAGCAAG | 0.0472
TGTACTGAAATGCAAGCAAG | 0.113
GTTGCTGAAATGCAAGCAAG | 0.24
GTAGCTGAAATGCAAGCAAG | 0.0419
CGTGGTGAAATGCAAGCAAG | 0.18
AGAGGTGAAATGCAAGCAAG | 0.444
GTTCTTGAAATGCAAGCAAG | 0.00584
TTCCATGAAATGCAAGCAAG | 0.306
TTAGATGAAATGCAAGCAAG | 0.22
TAGGATGAAATGCAAGCAAG | 0.351
TATGCTGAAATGCAAGCAAG | 0.664
TGCCGTGAAATGCAAGCAAG | 0.179
TGGAGTGAAATGCAAGCAAG | 0.278
CGTTCTGAAATGCAAGCAAG | 0.277

Sequence | AGO1 loading enrichment factor
GGGACTGAAATGCAAGCAAG | 0.981
AGCACTGAAATGCAAGCAAG | 0.0754
GGCCCTGAAATGCAAGCAAG | 0.111
TAGCGTGAAATGCAAGCAAG | 0.296
GGGTATGAAATGCAAGCAAG | 0.216
CGCTCTGAAATGCAAGCAAG | 0.0313
TGACATGAAATGCAAGCAAG | 0.26
AGTAGTGAAATGCAAGCAAG | 0.0927
TCGTGTGAAATGCAAGCAAG | 0.218
TGCAGTGAAATGCAAGCAAG | 0.0388
ATGAATGAAATGCAAGCAAG | 0.421
TACTGTGAAATGCAAGCAAG | 0.658
ATCCCTGAAATGCAAGCAAG | 0.463
CGTCCTGAAATGCAAGCAAG | 0.00539
GCACATGAAATGCAAGCAAG | 0.0369
CCAAGTGAAATGCAAGCAAG | 0.0628
GGCAGTGAAATGCAAGCAAG | 0.045
CGTACTGAAATGCAAGCAAG | 0.105
ACACTTGAAATGCAAGCAAG | 0.0116
GGCCGTGAAATGCAAGCAAG | 0.194
ACTCGTGAAATGCAAGCAAG | 0.0663
GTTTATGAAATGCAAGCAAG | 0.114
CGCAATGAAATGCAAGCAAG | 0.0745
GCACCTGAAATGCAAGCAAG | 0.201
GTCCATGAAATGCAAGCAAG | 0.139

Sequence | AGO1 loading enrichment factor
ATGGGTGAAATGCAAGCAAG | 0.468
GTAAATGAAATGCAAGCAAG | 0.133
TTTCCTGAAATGCAAGCAAG | 0.149
CCTACTGAAATGCAAGCAAG | 0.137
GGATGTGAAATGCAAGCAAG | 0.512
GGTTGTGAAATGCAAGCAAG | 0.0348
ACACCTGAAATGCAAGCAAG | 0.369
ATTAGTGAAATGCAAGCAAG | 0.115
ACACGTGAAATGCAAGCAAG | 0.101
TGACGTGAAATGCAAGCAAG | 0.544
CCGGTTGAAATGCAAGCAAG | 0.0802
GTTGTTGAAATGCAAGCAAG | 0.228
CCGTGTGAAATGCAAGCAAG | 0.0201
CGTCGTGAAATGCAAGCAAG | 0.167
TCCATTGAAATGCAAGCAAG | 0.353
TAGAATGAAATGCAAGCAAG | 0.349
TGAGCTGAAATGCAAGCAAG | 0.0623
AATAGTGAAATGCAAGCAAG | 0.155
GATAATGAAATGCAAGCAAG | 0.136
ATAAGTGAAATGCAAGCAAG | 0.112
ACTCTTGAAATGCAAGCAAG | 0.126
CATATTGAAATGCAAGCAAG | 0.0351
CAATCTGAAATGCAAGCAAG | 0.0465
CCTAGTGAAATGCAAGCAAG | 0.12
CTAAGTGAAATGCAAGCAAG | 0.0807

Sequence | AGO1 loading enrichment factor
GGGATTGAAATGCAAGCAAG | 0.337
TTAATTGAAATGCAAGCAAG | 0.161
TCAAATGAAATGCAAGCAAG | 0.325
CATACTGAAATGCAAGCAAG | 0.201
ACCGATGAAATGCAAGCAAG | 0.192
GACTGTGAAATGCAAGCAAG | 0.265
GCGTGTGAAATGCAAGCAAG | 0.00987
CCGCTTGAAATGCAAGCAAG | 0.00322
GAGAATGAAATGCAAGCAAG | 0.171
CATTATGAAATGCAAGCAAG | 0.0709
ATAACTGAAATGCAAGCAAG | 0.103
ATGATTGAAATGCAAGCAAG | 0.422
AAAGCTGAAATGCAAGCAAG | 0.0445
TATAGTGAAATGCAAGCAAG | 0.338
GAAACTGAAATGCAAGCAAG | 0.145
GAAGGTGAAATGCAAGCAAG | 0.279
TGGCATGAAATGCAAGCAAG | 0.132
TTGAGTGAAATGCAAGCAAG | 0.602
TTGGCTGAAATGCAAGCAAG | 0.219
ATTGATGAAATGCAAGCAAG | 0.194
GTTTCTGAAATGCAAGCAAG | 0.0601
CGATTTGAAATGCAAGCAAG | 0.115
CCGCCTGAAATGCAAGCAAG | 0.417
ACTTTTGAAATGCAAGCAAG | 0.117
GCTGGTGAAATGCAAGCAAG | 0.027

Sequence | AGO1 loading enrichment factor
TCAGGTGAAATGCAAGCAAG | 0.251
TTTGCTGAAATGCAAGCAAG | 1.01
AGGACTGAAATGCAAGCAAG | 0.167
TGAACTGAAATGCAAGCAAG | 0.225
ACAATTGAAATGCAAGCAAG | 0.181
CCTCATGAAATGCAAGCAAG | 0.225
CTGAATGAAATGCAAGCAAG | 0.345
AGTACTGAAATGCAAGCAAG | 0.0807
ACTTATGAAATGCAAGCAAG | 0.185
GTGACTGAAATGCAAGCAAG | 1.24
CACCTTGAAATGCAAGCAAG | 0.00322
AGACTTGAAATGCAAGCAAG | 0.0309
TACAATGAAATGCAAGCAAG | 0.338
GCTGCTGAAATGCAAGCAAG | 0.0482
GGGCATGAAATGCAAGCAAG | 0.0806
AGCCATGAAATGCAAGCAAG | 0.203
CGTGTTGAAATGCAAGCAAG | 0.0666
TTTATTGAAATGCAAGCAAG | 0.239
GATACTGAAATGCAAGCAAG | 0.173
GTAAGTGAAATGCAAGCAAG | 0.119
TATCCTGAAATGCAAGCAAG | 1.71
GCACTTGAAATGCAAGCAAG | 0.0663
TGGGTTGAAATGCAAGCAAG | 0.365
CACAGTGAAATGCAAGCAAG | 0.177
AGGAATGAAATGCAAGCAAG | 0.144

Sequence | AGO1 loading enrichment factor
TGAATTGAAATGCAAGCAAG | 0.0883
TACCTTGAAATGCAAGCAAG | 0.792
AATTCTGAAATGCAAGCAAG | 0.223
TTCGATGAAATGCAAGCAAG | 0.312
TACGATGAAATGCAAGCAAG | 0.67
GGAGATGAAATGCAAGCAAG | 0.64
TTTAGTGAAATGCAAGCAAG | 0.218
TTGGATGAAATGCAAGCAAG | 0.632
TGTTATGAAATGCAAGCAAG | 0.123
GGACATGAAATGCAAGCAAG | 4.06
AGAGCTGAAATGCAAGCAAG | 0.0492
AGCCTTGAAATGCAAGCAAG | 0.132
ATTTGTGAAATGCAAGCAAG | 0.105
CTTGGTGAAATGCAAGCAAG | 0.0146
CAAAGTGAAATGCAAGCAAG | 0.153
TCCTTTGAAATGCAAGCAAG | 0.425
CGGTTTGAAATGCAAGCAAG | 0.0615
GGTAGTGAAATGCAAGCAAG | 0.143
CTGTATGAAATGCAAGCAAG | 0.0978
TGCACTGAAATGCAAGCAAG | 0.0538
TTTTTTGAAATGCAAGCAAG | 0.116
CAAGCTGAAATGCAAGCAAG | 0.00891
TTTGATGAAATGCAAGCAAG | 0.417
GGTGTTGAAATGCAAGCAAG | 0.22
CCCAATGAAATGCAAGCAAG | 0.113

Sequence | AGO1 loading enrichment factor
TATGGTGAAATGCAAGCAAG | 0.394
GGCGGTGAAATGCAAGCAAG | 0.425
GGCGCTGAAATGCAAGCAAG | 0.115
AACGGTGAAATGCAAGCAAG | 0.293
CTTCATGAAATGCAAGCAAG | 0.0629
TCCGTTGAAATGCAAGCAAG | 0.399
CCGTATGAAATGCAAGCAAG | 0.0418
CGGCCTGAAATGCAAGCAAG | 0.135
TGCAATGAAATGCAAGCAAG | 0.0415
CACCATGAAATGCAAGCAAG | 0.141
AATCTTGAAATGCAAGCAAG | 0.0537
CAACTTGAAATGCAAGCAAG | 0.00689
TGTATTGAAATGCAAGCAAG | 0.142
CTGAGTGAAATGCAAGCAAG | 0.0773
GCCATTGAAATGCAAGCAAG | 0.204
CAACCTGAAATGCAAGCAAG | 0.423
TTGGGTGAAATGCAAGCAAG | 0.428
GTCCCTGAAATGCAAGCAAG | 0.114
TACTTTGAAATGCAAGCAAG | 0.259
CCGGCTGAAATGCAAGCAAG | 0.0679
TCACGTGAAATGCAAGCAAG | 0.912
CAAATTGAAATGCAAGCAAG | 0.157
